The list shows a part of the results. Sequences were assembled here from the parent chain. Values near 0.05 are background.
B1: TEV protease; numbered along this chain (parent)
chain: MGESLFKGPRDYNPISSSICHLTNESDGHTTSLYGIGFGPFIITNKHLFRRNNGTLVVQSLHGVFKVKDTTTLQQHLVDGRDMIIIRMPKDFPPFPQKLKFREPQREERICLVTTNFQTKSMSSMVSDTSCTFPSGDGIFWKHWIQTKDGQCGSPLVSTRDGFIVGIHSASNFTNTNNYFTSVPKNFMELLTNQEAQQWVSGWRLNADSVLWGGHKVFMVKPEEPFQPVKEATQL

Variants of: B1
Experiment: raw area under fraction-flipped curve 0-4 h after induction (AUC4h, not background-subtracted), DNA-recorder readout of cleavage of the substrate (dimensionless); higher = more cleavage of the substrate by the protease variant
Conditions: temperature: 34 °C; time window: 0-4 h after rhamnose induction
Method: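 In vivo DNA recorder in E. coli TOP10(DE3) ΔrhaA at 34 °C. Each TEVp single-site mutant (parent TEVp 0) is paired with a single-site variant of the 7-mer TEVs (canonical ENLYFQ|S). The substrate sits between flexible linkers in a Bxb1-sfGFP-TEVs-SsrA fusion, so cleavage stabilises Bxb1 and speeds flipping of a recombination array, read by NGS. The value is the raw area under the fraction-flipped curve over 0-4 h after rhamnose induction (AUC4h), with ≥20 reads per time point. It is not background-subtracted; inactive controls average about 0.047.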
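Also: Bxb1 expression induced with 0.2% (w/v) L-rhamnose at OD600 near 0.5, cultures sampled hourly, flipped fraction per protease–substrate barcode pair counted by paired-end Illumina sequencing.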

| Variant | area with substrate ENAYFQS | area with substrate ENCYFQS | area with substrate ENDYFQS | area with substrate ENEYFQS | area with substrate ENGYFQS | area with substrate ENIYFQS | area with substrate ENKYFQS | area with substrate ENNYFQS | area with substrate ENPYFQS | area with substrate ENQYFQS | area with substrate ENFYFQS | area with substrate ENHYFQS | area with substrate ENSYFQS | area with substrate ENTYFQS | area with substrate ENMYFQS | area with substrate ENRYFQS | area with substrate ENVYFQS | area with substrate ENWYFQS | area with substrate ENYYFQS |
| --- | --- | --- | --- | --- | --- | --- | --- | --- | --- | --- | --- | --- | --- | --- | --- | --- | --- | --- | --- |
| MGESLFKGPRDYNPISSSICHLTNESDGHTTSLYGIGFGPFIITNKHLFRRNNGTLVVQSLHGTFKVKDTTTLQQHLVDGRDMIIIRMPKDFPPFPQKLKFREPQREERICLVTTNFQTKSMSSMVSDTSCTFPSGDGIFWKHWIQTKDGQCGSPLVSTRDGFIVGIHSASNFTNTNNYFTSVPKNFMELLTNQEAQQWVSGWRLNADSVLWGGHKVFMVKPEEPFQPVKEATQL [V64T] | 0.0334 | 0.0999 | 0.0245 | 0.0656 | 0.0706 | 0.111 | 0.038 | 0.0757 | 0.0524 | 0.0656 |  |  |  |  |  |  |  |  |  |
| MGESLFKGPRDYNPISSSICHLTNESDGHTTSLYGIGFGPFIITNKHLFRRNNGTLVVQSLHGWFKVKDTTTLQQHLVDGRDMIIIRMPKDFPPFPQKLKFREPQREERICLVTTNFQTKSMSSMVSDTSCTFPSGDGIFWKHWIQTKDGQCGSPLVSTRDGFIVGIHSASNFTNTNNYFTSVPKNFMELLTNQEAQQWVSGWRLNADSVLWGGHKVFMVKPEEPFQPVKEATQL [V64W] | 0.0365 | 0.0591 | 0.0784 | 0.0528 |  |  |  | 0.0307 |  | 0.0621 | 0.0589 | 0.0635 | 0.0684 | 0.104 |  |  |  |  |  |
| MGESLFKGPRDYNPISSSICHLTNESDGHTTSLYGIGFGPFIITNKHLFRRNNGTLVVQSLHGKFKVKDTTTLQQHLVDGRDMIIIRMPKDFPPFPQKLKFREPQREERICLVTTNFQTKSMSSMVSDTSCTFPSGDGIFWKHWIQTKDGQCGSPLVSTRDGFIVGIHSASNFTNTNNYFTSVPKNFMELLTNQEAQQWVSGWRLNADSVLWGGHKVFMVKPEEPFQPVKEATQL [V64K] | 0.062 | 0.0671 | 0.0562 | 0.0672 | 0.0521 |  | 0.0638 | 0.0638 | 0.0663 | 0.0578 |  | 0.0558 | 0.0502 | 0.0609 | 0.103 | 0.0664 | 0.0769 | 0.003 |  |
| MGESLFKGPRDYNPISSSICHLTNESDGHTTSLYGIGFGPFIITNKHLFRRNNGTLVVQSLHGPFKVKDTTTLQQHLVDGRDMIIIRMPKDFPPFPQKLKFREPQREERICLVTTNFQTKSMSSMVSDTSCTFPSGDGIFWKHWIQTKDGQCGSPLVSTRDGFIVGIHSASNFTNTNNYFTSVPKNFMELLTNQEAQQWVSGWRLNADSVLWGGHKVFMVKPEEPFQPVKEATQL [V64P] | 0.0622 | 0.0726 | 0.0653 | 0.0584 |  | 0.0825 | 0.048 | 0.0522 |  | 0.0599 |  | 0.0618 | 0.0733 | 0.0556 | 0.0776 | 0.0643 | 0.0653 | 0.0555 |  |
| MGESLFKGPRDYNPISSSICHLTNESDGHTTSLYGIGFGPFIITNKHLFRRNNGTLVVQSLHGCFKVKDTTTLQQHLVDGRDMIIIRMPKDFPPFPQKLKFREPQREERICLVTTNFQTKSMSSMVSDTSCTFPSGDGIFWKHWIQTKDGQCGSPLVSTRDGFIVGIHSASNFTNTNNYFTSVPKNFMELLTNQEAQQWVSGWRLNADSVLWGGHKVFMVKPEEPFQPVKEATQL [V64C] | 0.0528 | 0.0689 | 0.064 | 0.0744 | 0.0604 | 0.0859 | 0.0632 | 0.0656 |  | 0.0565 |  | 0.0527 | 0.0621 | 0.0659 |  | 0.0192 |  |  |  |
| MGESLFKGPRDYNPISSSICHLTNESDGHTTSLYGIGFGPFIITNKHLFRRWNGTLVVQSLHGVFKVKDTTTLQQHLVDGRDMIIIRMPKDFPPFPQKLKFREPQREERICLVTTNFQTKSMSSMVSDTSCTFPSGDGIFWKHWIQTKDGQCGSPLVSTRDGFIVGIHSASNFTNTNNYFTSVPKNFMELLTNQEAQQWVSGWRLNADSVLWGGHKVFMVKPEEPFQPVKEATQL [N52W] | 0.0559 | 0.0615 | 0.0664 | 0.0605 | 0.0803 | 0.0688 | 0.065 | 0.0613 | 0.0598 | 0.0637 | 0.0514 | 0.0732 | 0.0552 | 0.0581 | 0.07 | 0.0679 | 0.0594 | 0.0523 | 0.042 |
| MGESLFKGPRDYNPISSSICHLTNESDGHTTSLYGIGFGPFIITNKHLFRRNNGTLVVQSGHGVFKVKDTTTLQQHLVDGRDMIIIRMPKDFPPFPQKLKFREPQREERICLVTTNFQTKSMSSMVSDTSCTFPSGDGIFWKHWIQTKDGQCGSPLVSTRDGFIVGIHSASNFTNTNNYFTSVPKNFMELLTNQEAQQWVSGWRLNADSVLWGGHKVFMVKPEEPFQPVKEATQL [L61G] | 0.0632 | 0.0687 | 0.0722 | 0.0747 | 0.0617 | 0.0845 | 0.0788 | 0.0644 | 0.0802 | 0.0634 |  | 0.0636 | 0.059 | 0.0638 | 0.0743 | 0.0583 | 0.0817 |  |  |
| MGESLFKGPRDYNPISSSICHLTNESDGHTTSLYGIGFGPFIITNKHLFRRNNGTLVVQSLHGVFKVKDTTCLQQHLVDGRDMIIIRMPKDFPPFPQKLKFREPQREERICLVTTNFQTKSMSSMVSDTSCTFPSGDGIFWKHWIQTKDGQCGSPLVSTRDGFIVGIHSASNFTNTNNYFTSVPKNFMELLTNQEAQQWVSGWRLNADSVLWGGHKVFMVKPEEPFQPVKEATQL [T72C] | 0.0607 | 0.0699 |  | 0.0577 |  |  |  |  |  |  |  |  | 0.0854 | 0.074 |  | 0.0596 | 0.0816 |  | 0.0433 |
| MGESLFKGPRDYNPISSSICHLTNESDGHTTSLYGIGFGPFIITNKHLFRRNNGTLVVQSLHGVFKVKDTTGLQQHLVDGRDMIIIRMPKDFPPFPQKLKFREPQREERICLVTTNFQTKSMSSMVSDTSCTFPSGDGIFWKHWIQTKDGQCGSPLVSTRDGFIVGIHSASNFTNTNNYFTSVPKNFMELLTNQEAQQWVSGWRLNADSVLWGGHKVFMVKPEEPFQPVKEATQL [T72G] | 0.0613 |  | 0.0633 | 0.0855 | 0.0779 |  | 0.0568 | 0.0659 |  |  |  | 0.0565 | 0.0684 | 0.0678 |  |  | 0.0549 |  |  |
